Measured values: PubChem BioAssay AID624417 (National Center for Advancing Translational Sciences (NCATS), 2012)
The campaign covered roughly 410,000 compounds. About 6,400 (1.6%) were called active. The inconclusive results got no clear call from the source; some entries with a clear call stand among them for comparison. Calls come from the whole dose curve; as a rule, active = well fitted inhibition curve with a large enough effect; inconclusive = small, poorly fitted or top-dose-only effect; inactive = no such curve, though single readings can be large or run the other way. Potencies of inconclusive entries are doubtful fits and often do not repeat.

These compounds were tested against Glucagon-like peptide 1 receptor (Homo sapiens) (UniProt P43220) (assay: qHTS of GLP-1 Receptor Inverse Agonists (Inhibition Mode)). Details: HEK293 GLP-1R CRE-luciferase, luminescence, 24 h, GLP-1R form is constitutively active; series mostly up to 38.3 µM.
Sequence of UniProt P43220 (P43220 whole entry, looked up): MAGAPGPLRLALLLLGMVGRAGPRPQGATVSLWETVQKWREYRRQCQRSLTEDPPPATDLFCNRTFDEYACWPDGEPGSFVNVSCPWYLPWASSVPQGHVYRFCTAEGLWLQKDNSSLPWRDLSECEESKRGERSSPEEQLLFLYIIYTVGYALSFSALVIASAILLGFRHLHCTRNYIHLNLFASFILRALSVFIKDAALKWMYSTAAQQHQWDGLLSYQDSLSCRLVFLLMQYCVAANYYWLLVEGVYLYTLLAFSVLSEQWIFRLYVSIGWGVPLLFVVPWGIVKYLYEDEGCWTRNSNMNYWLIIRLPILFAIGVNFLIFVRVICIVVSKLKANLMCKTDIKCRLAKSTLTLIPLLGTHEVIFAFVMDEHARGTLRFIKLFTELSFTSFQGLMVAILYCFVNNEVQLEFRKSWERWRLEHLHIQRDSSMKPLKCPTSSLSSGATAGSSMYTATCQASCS
Procedure, shortened: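 Inverse agonists were sought by their lowering of basal cAMP reporter luciferase output in HEK293 cells stably carrying constitutively active human GLP-1R, after 24 h compound treatment.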
Note: nearly all actives have a fitted effect of over 55% in size.
Potency is the fitted concentration of half-maximal effect; tags give direction and shape of the fitted curve.

Potency, inconclusive:
CCC1CCCCN1CCCNC(=O)c1ccc2c(c1)N(Cc1ccc(F)cc1)C(=O)c1ccccc1S2=O (stereo not drawn) 7.94 µM [inhibitor, partial curve, poor fit]
CCOc1ccc(OCc2ccc(C(=O)Nc3cccnc3)o2)cc1 8.91 µM [inhibitor, partial curve, poor fit]
CC1(C(=O)NCCc2ccccc2)Cc2c(-c3cccc(C(N)=O)c3)ccnc2O1 (stereo not drawn) 5.01 µM [inhibitor, partial curve]
COc1ccc(Cl)cc1NC(=O)N1CCN(c2ccccc2OC)CC1 11.2 µM [inhibitor, single point]
COc1cccc(COC(=O)c2c(C)nn(-c3ccccc3)c2Cl)c1OC 22.4 µM [inhibitor, partial curve, poor fit]
O=C(NCc1cccs1)c1cc(-c2ccccc2)nc2ccccc12 10 µM [inhibitor, partial curve]
S=C(NNc1ccnc2cc(Cl)ccc12)Nc1ccccc1Cl 22.4 µM [inhibitor, partial curve, poor fit]
COc1ccc(S(=O)(=O)N2CCN(Cc3nc4ccc(C)cc4o3)CC2)cc1Cl 3.55 µM [inhibitor, partial curve, poor fit]
O=C(c1ccc(Cl)cc1)c1oc2ccccc2c1CS(=O)c1ccccc1 (stereo not drawn) 28.2 µM [inhibitor, single point]
CCc1ccccc1NC(=O)C1CCCN(C(=O)c2cnn(-c3ccccc3)c2-n2cccc2)C1 (stereo not drawn) 11.2 µM [inhibitor, partial curve, poor fit]
CC1(C)OC(=O)C2=C(C[C@@H](CCc3ccccc3)O[C@@H]2c2ccc(Cl)cc2)O1 12.6 µM [inhibitor, single point]
O=C(c1cc2ccccc2oc1=O)N(Cc1ccco1)Cc1cccs1 7.08 µM [inhibitor, partial curve, poor fit]
CCCCCCN1C[C@H](n2cc(-c3ccc(F)cc3)nn2)[C@@H](O)C[C@@H]1c1ccc(Cl)cc1 3.55 µM [inhibitor, partial curve, poor fit]
Cc1cc(C)c(C#N)c(SCC(=O)c2cc(C)n(CCc3ccccc3)c2C)n1 11.2 µM [inhibitor, partial curve, poor fit]
CCNC(=S)N1CCN(S(=O)(=O)/C=C/c2ccccc2)CC1 28.2 µM [inhibitor, single point]
CSc1ccc(CN2CCC2(C)C(=O)Nc2cnc3ccccc3c2)cc1 (stereo not drawn) 28.2 µM [inhibitor, single point]
Oc1ccc(Nc2nc(-c3ccccc3O)nc3ccccc23)cc1 14.1 µM [inhibitor, single point]
Cc1ccc(OCc2cc(C(=O)N3CCC(Oc4cccnc4)CC3)no2)cc1C 11.2 µM [inhibitor, single point]
CC(C)CCNC(=O)CN1C(=O)CSc2ccc(S(=O)(=O)N3CCCCC3)cc21 11.2 µM [inhibitor, partial curve, poor fit]
Cc1ccc(Cl)cc1N(C(=O)c1csnn1)C(C(=O)NC1CCCC1)c1ccco1 (stereo not drawn) 28.2 µM [inhibitor, single point]
O=S1(=O)c2ccccc2N(Cc2cccc(Cl)c2)c2ccccc21 28.2 µM [inhibitor, single point]
CCN(CC)CCNC(=O)c1ccc2c(=O)n3nc(Nc4ccccc4OC)sc3nc2c1 15.8 µM [inhibitor, single point]
COCCSc1ccccc1C(=O)Nc1ccc(Br)cc1 28.2 µM [inhibitor, single point]
COc1ccc(S(=O)(=O)N2CCN(CCCOc3ccc(F)cc3)CC2)cc1OC 28.2 µM [inhibitor, single point]
CC(C)(C)CC(=O)O/N=C(\N)c1ccccn1 7.94 µM [inhibitor, partial curve, poor fit]
CCOc1ccc(N(C)S(=O)(=O)c2ccc(C)c(C(=O)Nc3nnc(C4CC4)s3)c2)cc1 14.1 µM [inhibitor, single point]
CSCC[C@H](NC(=O)N1CCn2c1nc1ccccc12)C(=O)NCc1ccc2c(c1)OCO2 10 µM [inhibitor, partial curve, poor fit]
Cn1c(SCc2nc(-c3cccs3)no2)nnc1C1CCCCC1 14.1 µM [inhibitor, partial curve, poor fit]
O=C(N/N=C/c1cc(Br)cs1)c1ccc2c(c1)OCCO2 7.94 µM [inhibitor, partial curve, poor fit]
CCCc1nc(N2CCOCC2)c(C#N)c2c1CCCC2 10 µM [inhibitor, partial curve, poor fit]
Cc1cccc(-n2ncc3c(NC4CCCCC4)ncnc32)c1 2 µM [inhibitor, partial curve, poor fit]
COC(=O)c1ccc(C23CC4(C2)[C@H](CN(C)[C@@H]4c2ccccc2)C3c2ccccc2)cc1 (stereo partly drawn) 25.1 µM [inhibitor, single point]
O=C(c1ccc(S(=O)(=O)N2CCCCCC2)cc1)N1CCN(c2ccccn2)CC1 10 µM [inhibitor, partial curve, poor fit]
COc1ccccc1N1CCN(CC(=O)Nc2ccccc2C(=O)NCCc2ccccc2)CC1 28.2 µM [inhibitor, single point]
O=C(NCc1cc(C(F)(F)F)ccc1Cl)c1cccc2c1C(=O)c1ccc(N3CCC(N4CCCCC4)CC3)cc1S2(=O)=O 11.2 µM [inhibitor, single point]
COc1ccc(CC(=O)OCc2csc(CC(=O)Nc3ccc(C)cc3)n2)cc1 12.6 µM [inhibitor, partial curve, poor fit]
O=C(/C=C/c1ccccc1)Nc1sc2c(c1C(=O)O)CCC2 28.2 µM [inhibitor, single point]
O=C1C(Cl)=C(O)C2(Cl)C(Cl)=C(Cl)C12Cl (stereo not drawn) 7.94 µM [inhibitor, partial curve, poor fit]
Cc1ccc(CNC(=O)C2CCCN(c3ncnc4c3nc3n4CCCCC3)C2)cc1 (stereo not drawn) 2 µM [inhibitor, full curve, poor fit]
CSc1nsc2nc(=O)c(/C=C3\C=Nc4ccccc43)c(N)n12 28.2 µM [inhibitor, single point]
CC1=C(C(=O)OC(C)(C)C)C(c2ccc3ccccc3c2)NC(=O)N1C (stereo not drawn) 28.2 µM [inhibitor, single point]
Cc1ccc(OCC(=O)Nc2cc(NC(=O)COc3ccc(C)c(C)c3)cc(C(=O)O)c2)cc1C 28.2 µM [inhibitor, single point]
S=C(NNc1nc(Nc2ccccc2)nc(N2CCCCC2)n1)NC1CCCCC1 1.26 µM [inhibitor, partial curve, poor fit]
O=C(NCCCCc1ccccc1)c1cc([N+](=O)[O-])cc([N+](=O)[O-])c1 15.8 µM [inhibitor, single point]
CCCn1c2ccccc2c2cnn(CC(=O)N(CCCOC)Cc3ccco3)c(=O)c21 11.2 µM [inhibitor, partial curve, poor fit]
COc1cccc(/C=C/C(=O)Nc2ccc3nc(N4CCN(C)CC4)cc(C)c3c2)c1OC 10 µM [inhibitor, partial curve, poor fit]
Cc1ccc2c(c1C)NC(=O)C21N2CCCC2C(C(=O)c2ccc3ccccc3c2)C12C(=O)Nc1ccccc12 (stereo not drawn) 10 µM [inhibitor, single point]
Clc1ccc(-c2cc(C3CCNCC3)[nH]n2)cc1 8.91 µM [inhibitor, partial curve, poor fit]
COC(=O)c1ccc(COc2ccc(C(C)(C)C)cc2)o1 28.2 µM [inhibitor, single point]

Potency, inactive:
Cc1onc(C(=O)N2CCN(Cc3ccccc3)CC2)c1[N+](=O)[O-]
CN(C)C(=S)Nc1ccc2ccccc2c1
O=C(CCCN1C(=O)c2ccccc2C1=O)Nc1ccccc1
COc1ccc(CCNC(=O)c2ccc3c(c2)ncn3-c2ccc(C)cc2C)cc1OC
COc1cccc(CNC(=O)C2CCN(c3nnc(-n4c(C)ccc4C)s3)CC2)c1OC
Cc1n[nH]c(=S)n1/N=C/c1c(O)ccc2ccccc12
CCOc1ccc(-c2nc(CSCC(=O)NCc3ccc(Cl)cc3)c(C)o2)cc1
O=C(c1ccco1)N1N=C2CCCCCC2C1(O)C(F)(F)F (stereo not drawn)
Cc1ccc(C(=O)NCCCn2ccnc2)cc1[N+](=O)[O-]
Cc1ccc(C2=NN(S(C)(=O)=O)C(c3ccc4c(c3)OCO4)C2)cc1 (stereo not drawn)
Fc1cccc(CSc2ncnc3c2oc2ccccc23)c1
CNc1cncc(-c2cccc(C(=O)N(C)C)c2)n1
CCOC(=O)Nc1nnc(/C=C/c2ccc(OC)cc2)s1
Cc1cccc(C)c1OCc1cc(C(=O)NCC2CCCCC2)no1
